About 40 (0.04%) of roughly 110,000 compounds were called active. The inconclusive results got no clear call from the source; some entries with a clear call stand among them for comparison. The call rests on the fitted dose curve; in most records, active means well fitted curve in the direction sought with a large enough effect in the signal ratio (not every such curve was filed as active); inconclusive means small, poorly fitted or top-dose-only effect, or a change in a side signal; inactive means flat fitted curve, though single readings scatter; the % refers to the signal ratio. A potency beside an inconclusive call is a rough fit, not a confirmed value.
Experiment: IkB Signaling;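 on IkBa stabilization activation: 0% = basal untreated cells and 100% = reference inhibitor full response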
Conditions: ABC-DLBCL IkBa-CBG/CBR dual luciferase ratio (green luciferase fused to IkBa over red control in OCI-Ly3 lymphoma cells), 4 h; IkBa stabilization activation: at 57.1 µM (top of the series), scaled: untreated 0%, proteasome inhibitor 100% unless noted
Summary of the method: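 Curves were fitted separately to fusion (green), unfused (red) and ratio luminescence, then classed by r2, magnitude and activity. Cells: OCI-Ly3, 4 h compound plus doxycycline at 37C; 10 uM MG-132 defined full response.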
Potency means the concentration at half of the fitted maximal effect.

SMILES	Potency	IkBa stabilization activation
O=C(Cc1c(O)c2ccccc2[nH]c1=O)NC1CCCCCCC1	inconclusive: 15.8 µM [signal inhibitor, partial curve]	
Nc1ccccc1-c1nc2ccccc2[nH]1		inactive: 2.05%
CCOC(=O)c1c(C)oc2nc(C)nc(N3CCN(c4cccc(C)c4C)CC3)c12		inconclusive: -0.563% [signal inhibitor]
Cc1ccccc1-n1c(SCc2cc(=O)n3ccccc3n2)nc2[nH]ncc2c1=O		inactive: -1.92%
Cc1cccc(OCCSc2nc3ccccc3n2CC(=O)N2CCOCC2)c1C		inconclusive: 0.812% [signal inhibitor]
CC(C)(C)NS(=O)(=O)c1cccc(S(=O)(=O)c2cccc(S(=O)(=O)NC(C)(C)C)c2)c1		inconclusive: 2.28% [signal inhibitor]
Cc1nc2ccc(N)cc2s1		inactive: 2.3%
O=S(=O)(Nc1cccc(-c2ccc(N3CCCC3)nn2)c1)c1cc(F)ccc1F		inactive: -2.87%
CCOc1ccc(C2C(C(N)=O)=C(C)Nc3nc(-c4cccc(Cl)c4)nn32)cc1OC (centres undefined)	inconclusive: 31.6 µM [signal inhibitor]	
CCOC(=O)N1CCN(Cc2nc3cc(NC(=O)c4ccc([N+](=O)[O-])cc4)ccc3n2C(C)C)CC1		inconclusive: 0.0158% [signal inhibitor]
CC(C)Oc1ccc(C(=O)Nc2nc3c(s2)CC(C(C)(C)C)CC3)cc1 (centres undefined)		inconclusive: 4.42% [signal inhibitor]
COC(=O)c1[nH]c2ccc(Cl)cc2c1NC(=O)CN1CCc2cc(OC)c(OC)cc2C1		inconclusive: 1.7% [signal inhibitor]
CN(C)c1ccccc1CN1CCCN(Cc2ccccc2N(C)C)C1c1ccncc1		inactive: 2.84% [at 11.4 µM, scaled: untreated 0%, proteasome inhibitor 100%]
Cc1ccc(Cn2c(C)c3cnn(CC(=O)N4CCN(c5ccc(F)cc5)CC4)c(=O)c3c2C)cc1		inactive: 1.98%
O=C(/C=C/c1ccccc1)N1CCN(Cc2cc(=O)n3nc(-c4ccccc4Cl)sc3n2)CC1		inconclusive: 2.68% [signal inhibitor]
CCn1c(SCC(=O)c2ccccc2)nnc1-c1cnccn1	inconclusive: 15.8 µM [signal inhibitor, partial curve]	
OC[C@@H]1NC[C@@H](O)[C@H]1O		inactive: -6.06%
COc1ccc2[nH]c(C(=O)c3ccccc3)cc2c1		inactive: 2.3%
Cc1ccc(O)c(NC(=O)CCSc2nc(-c3ccco3)cc(C(F)(F)F)n2)c1	inconclusive: 39.8 µM [signal activator, single point]	
O=C(CN1C(=O)C2(SCC(=O)N2c2ccc(Cl)cc2)c2ccccc21)NCCc1ccccc1 (centres undefined)		inconclusive: -2.85% [signal inhibitor]
Cc1ccc(-c2nc(C(=O)NC3CCCCCC3)no2)cc1	inconclusive: 0.0631 µM [signal inhibitor, full curve, poor fit]	
COc1nnc(-c2ccc(N3CCCCC3)c(NC(=O)c3ccccc3)c2)c2ccccc12		inconclusive: 9.26% [signal inhibitor]

SMILES	Potency	IkBa stabilization activation
O=C(NCC(c1cccnc1)N1CCc2ccccc21)C(=O)Nc1ccccc1F (centres undefined)		inconclusive: 10.8% [signal inhibitor]
N#CC(=C1SC=CS1)c1nc(-c2ccccc2)cs1		inconclusive: 7.98% [signal inhibitor]
COc1ccc(-c2nnc(SC3CCOC3=O)n2C2CCCCC2)cc1OC (centres undefined)		inconclusive: 7.47% [signal inhibitor]
CCOC(=O)c1nnn(CC(=O)NC(=O)Nc2ccc(F)cc2)c1C(=O)OCC		inconclusive: 3.41% [signal inhibitor]
COc1ccc(-n2c(Cc3cccn3C)nnc2SCC(=O)Nc2ccc(C)c(Cl)c2)cc1		inconclusive: -0.835% [signal inhibitor]
CCN(CC)C(=O)CSCC(=O)Nc1ccccc1		inconclusive: 5.72% [signal inhibitor]
c1ccc(CSc2nnc(-c3ccncc3)o2)cc1		inactive: -0.959%
Cc1ccccc1Nc1nnc(-c2ccc(C)c(S(=O)(=O)N3CCCCC3)c2)c2ccccc12		inactive: 2.56%
O=C(NCc1ccccc1Cl)c1ccc(NC(=O)c2nsc3ccccc23)cc1	inconclusive: 15.8 µM [signal inhibitor, partial curve]	
CCOc1ccc2nc(N3CCC(C(=O)Nc4ccc(Br)cc4F)CC3)sc2c1		inconclusive: 6.69% [signal inhibitor]
Cc1ccccc1OCC(=O)Nc1c(C)ccc2nsnc12		inactive: -2.57%
CC1CCN(S(=O)(=O)c2ccc3c(ccn3CC(=O)NCc3ccc(N(C)C)cc3)c2)CC1		inconclusive: -0.647% [signal inhibitor]
COc1ccc(Cl)cc1NC(=O)CN(c1ccccc1)S(=O)(=O)N(C)C		inconclusive: 2.4% [signal inhibitor]
CN(C)c1ccc(-c2cncnc2-n2ccnc2)cc1		inactive: -1.62% [at 11.4 µM, scaled: untreated 0%, proteasome inhibitor 100%]
COC(=O)N1CCC2(CC1)CCN(c1ncccn1)CC2		inactive: 0.853% [at 11.4 µM, scaled: untreated 0%, proteasome inhibitor 100%]
O=C(O)CCC(=O)N1CCN(c2ccc(C(=O)c3ccc(F)cc3)cc2)CC1		inactive: 0.748%
CCC1CN(C(=O)N2CCC(C(=O)N3CCN(c4ccc(F)cc4)CC3)CC2)c2ccccc2O1 (centres undefined)		inconclusive: -0.68% [signal inhibitor]
Cc1ccc(NC(=O)C2CCN(C(=O)c3cnn(-c4ccccc4)c3-n3cccc3)CC2)cc1		inconclusive: -0.173% [signal inhibitor]
COc1ccc(S(=O)(=O)N2CCCC2C(=O)Nc2nc3c(s2)CCCC3)cc1 (centres undefined)		inconclusive: 1.38% [signal inhibitor]
COc1ccc(NS(=O)(=O)c2ccc3c(c2)CCCN3C(=O)C2CCC2)cc1OC		inconclusive: 5.72% [signal inhibitor]
O=C(NCCCN1CCN(c2ccccc2F)CC1)C1COc2ccccc2C1 (centres undefined)		inactive: -1.44%
Cc1ccc(S(=O)(=O)Nc2ccc3nc(-c4cccn4C)[nH]c3c2)cc1		inconclusive: 0.796% [signal inhibitor]

From PubChem BioAssay AID445 (National Center for Advancing Translational Sciences (NCATS), 2006)
